# ± gives the standard deviation of the averaged measurements. The list shows a part of the results.
# Tested on: PfAP2-G AP2 domain (GST-tagged)
# Test: gcPBM binding intensity (ln(normalized median fluorescence intensity)); higher = stronger DNA binding
# Outline: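 An Agilent 4 × 180k array carrying primer-extended double-stranded 36-bp intergenic genomic probes and negative controls received GST-tagged P. falciparum DNA-binding domains expressed in E. coli, about 25 μg on average, for 1 h. The binding buffer contained 1× PBS, 1% milk, 0.2 mg/ml BSA, 0.5% salmon testes DNA and 0.03% Triton X-100. Binding intensity is the top Masliner-normalised natural-log median intensity across replicate spots of either probe orientation, read after Alexa488 anti-GST antibody staining and a 488 nm scan.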
row,Sequence,gcPBM binding intensity (ln)
1,GGAATTTTTATTCGAAGTACTGTTGTGAGTAATAAA [XGTACX_site8599],10.9 ± 0.57
2,TAAATGTTAAAATTCACACAAATATGTGCGGAATAT [CACACA_site5055],9.96 ± 0.15
3,ATTGATTTTTAATATACACACATAAGGACCACAAAA [CACACA_site4344],11.3 ± 0.67
4,AGAGAATATTTCCACACATGCAAATGTTATATGTAA [TGCATGCA_site282],10 ± 0.085
5,TGCTATTATTTATGTACACACCAATTTATTTATAAT [CACACA_site6029],11.3 ± 0.67
6,TTCGTTATATTTTGATGTACTGATTCATATATATAT [XGTACX_site1835],11 ± 0.67
7,TTATAATATAAAAATAAATAAATAAATAAATAAATA [CACACA_negctrl_site1587],9.53 ± 0.24
8,AATACGCATTTTAGTACACACTTAAAAAGTTATTTT [CACACA_site7401],11.3 ± 0.9
9,AATTATATTAATTCTTCATTACATTTTAAAATATTA [XGTACX_negctrl_site510],9.935 ± 0.064
10,ATTATATATGTATAAATATGCTATATATATATATAT [GTGCAC_negctrl_site430],9.94 ± 0.55
11,TCAACATTTAAAAATAGTACTCATAAACCTTTCGAA [XGTACX_site4111],11.1 ± 0.62
12,ATAAATAAAAAACACACACACACACCCAAAAAAAAA [CACACA_site2624],10.5 ± 0.31
13,TAATATTTATTCTATTGTACATAAAATATATATATA [XGTACX_site7132],11.1 ± 0.83
14,GGAAAGACATTACACAGTACCCAGGAAATCTACGGA [XGTACX_site2002],10.7 ± 0.35
15,TATATTATTTAAAAAGTGCAGTTACAAGATGAACCT [GTGCAC_site9641],10.1 ± 0.11
16,TATACATATGTATGCACACATACATACACATAGAAT [CACACA_site3480],10.1 ± 0.25
17,TATGCAAGGAACCACACACACACACCCAAATGTATA [CACACA_site750],10.4 ± 0.33
18,AGATTATATATATGTATATATGTATATATTTATATA [CACACA_negctrl_site1797],9.48 ± 0.2
19,TCTACAAGGCTTGATCGTACAATTTGAATGTATTTG [XGTACX_site7698],10.7 ± 0.52
20,CTCAACATATACGTAACACACATATATATATATATA [CACACA_site3838],10.2 ± 0.18
21,AAAATAACGAGTCAAACACACATATATATATATATA [CACACA_site2039],10.1 ± 0.25
22,AGCATAAACAATTTTTGAAAAAATATACACTCATAG [CACACA_negctrl_site890],9.935 ± 0.007

row,Sequence,gcPBM binding intensity (ln)
1,TATATATATATATACACACACACAAAAAAAAAAAAA [CACACA_site1505],10.3 ± 0.95
2,AACATATTTTTAAATACACACACATAAAAAAAAAAA [CACACA_site8279],10.1 ± 0.28
3,TATCTCTCTTTCTGCTGTACATAAAAATTATATAAT [XGTACX_site5961],11.2 ± 0.83
4,AGAAAATACACGCATACACACACACCCACCCACATA [CACACA_site8115],10.6 ± 0.35
5,CAAAAAAAGAAAGCTACACACATTTATGTGCTATAT [CACACA_site2777],9.835 ± 0.078
6,TATATATAATATACATGTACAAATGTATTTAAAAAT [XGTACX_site6090],10.9 ± 0.42
7,TCATATTTGCCTTTTTATTTAGAACACAAAAAAAAA [CACACA_negctrl_site1152],10.3 ± 0.44
8,TAAATAGCCAAACGCACACCCACAAAAAAAAAAAAA [CACACA_site1554],10.2 ± 0.59
9,ATTATAATAGTTAAATGTACACACTAACTACATGGA [XGTACX_site6918],11.3 ± 0.69
10,AATTAAAAATTCAAGTGTACTTTTATATTATTATAC [XGTACX_site4106],11.5 ± 1.1
11,ATTCGGATATATATCACACATAACTTTAATAATATA [CACACA_site5720],9.81 ± 0.085
12,AATTAAAAAATTTATGCACACTTTAAAAAAAAAAAA [CACACA_site5962],10 ± 0.32
13,ATAATAAAATAAGAAGCACACAAATATTATATATAA [CACACA_site9319],10.04 ± 0.021
14,TTCTTCAATAATAAGTGTACATATGCATACATTATA [XGTACX_site1502],11.2 ± 0.69
15,AAAAAAAATAAAAATAGTACTCAAAAAATTATGAAT [XGTACX_site3073],11.3 ± 0.67
16,ATATTAATTTCTTATGCATGTTCTACCAAATTGTAT [TGCATGCA_site38],10.06 ± 0.064
17,GATATGATATGATATGCATGTAACAAATTTTTTTAA [TGCATGCA_site268],9.65 ± 0.12
18,AAAAAAAAATATATATATATATATATATTTATGTAT [GTGCAC_negctrl_site483],9.54 ± 0.042
19,ACACATTCGAAAAATTGTACATATATAACAGAATAT [XGTACX_site7106],11.1 ± 0.7
20,AGTCATATAAATAGTAGTACTGTGTGTGAAGAAAAA [XGTACX_site5056],11.3 ± 0.73
21,ACAAATATGAGAAATTGTACATATAATAAAATAGTA [XGTACX_site2573],10.9 ± 0.57
22,GACTGCACTTTAAGCACACAAATATATTTTTTTTAT [CACACA_site1249],10.2 ± 0.12

row,Sequence,gcPBM binding intensity (ln)
1,AATATTTTTTAAATGTGTACATAGGTATAGCACACA [XGTACX_site8690],11.4 ± 0.91
2,AATTATTCTCTTTTCATTTGAACAATATGCTTAAAA [CACACA_negctrl_site995],9.98
3,ATCAAATTTGGACATGCATGTGTGTGTAAAACCATG [TGCATGCA_site309],10.6 ± 0.24
4,ATATTAGTCGAATGATGTACACACATACAAAACATT [XGTACX_site8613],11.3 ± 0.74
5,TTTTTTTTTAAATATACACACACATTTATACATATA [CACACA_site9122],10 ± 0.14
6,TTTGGAATATAATATTGTACATATTATATATATATA [XGTACX_site3187],11 ± 0.7
7,TTCTATTATGTGACTCAATTCTTCATGGGTGTATAA [TGCATGCA_negctrl_site140],10.3 ± 0.18
8,AATATATATAACGTTGGTACACAAAAATTATTAAAT [XGTACX_site8572],11.2 ± 0.66
9,TTATTTATTTTTATATGTACACAAAAAAAAAAAAAA [XGTACX_site1459],11.5 ± 1.1
10,TTCTCAAATATAATAAAATTATAAAGTGACCTAACT [GTGCAC_negctrl_site493],10.2 ± 0.36
11,TAATGGATTATACGTGCACACATATATACAAATAAA [CACACA_site8116],10.6 ± 0.52
12,CCTCATCCACTATGCACACAAAAAAGAAATACACTA [CACACA_site3422],10.5 ± 0.47
13,TTTTTTTTTTTTTTAACACACATATATATATTTTTC [CACACA_site1922],9.74 ± 0.28
14,TATATTTTACTCTTCACACATATACTCAATTTATAT [CACACA_site5357],10.3 ± 0.13
15,AAAAGAAAAAGAAAAACACACATAAATATAAATATA [CACACA_site1879],9.55 ± 0.16
16,CATATTTGGAAACACACACACATATTTATATATATA [CACACA_site3569],10.1 ± 0.23
17,AAAATTTTCTTTTTATGTACACATAATTTTACCGGA [XGTACX_site5276],11.4 ± 0.73
18,AAAACAATAATATACTGTACATATATATAATAACAT [XGTACX_site6188],11.1 ± 0.6
19,CAATATTTTTTATAGGGTACAAAAGATAAAAAAAAA [XGTACX_site6298],11.2 ± 0.69
20,AAATTCAGGTTATATTTTAATTTTTTTTTGTTTTTT [CACACA_negctrl_site924],9.49 ± 0.2
21,CATACACATACACATACACACGCATAGAAACATACG [CACACA_site8666],10.4 ± 0.26
22,AATTTTTCATCAAGTTGTACAATTATTTGTTTGTTT [XGTACX_site3113],11.3 ± 0.73

row,Sequence,gcPBM binding intensity (ln)
1,TTCTTTTTAATTTATTTTTTCTTATAACAAGAAAAC [CACACA_negctrl_site201],10 ± 0.071
2,TGCTAATAATTATTTGTTTAGCAACAAAAAAAAAAA [CACACA_negctrl_site1541],9.63 ± 0.22
3,TAATTAAAAAATAAAAAAAAAAAAAATTAAAACAAA [CACACA_negctrl_site500],9.38 ± 0.16
4,GTACATACATAAAACACACACATATATATATATATA [CACACA_site1826],10.7 ± 0.33
5,AAAAAAAAAAAAAAAACATGCAAAATAATATATATA [TGCATGCA_site68],10.2 ± 0.27
6,AGAAAAGGACATATATGTACTTATCAATATAGAAAC [XGTACX_site1042],11.4 ± 0.87
7,TTCTTTTCTTTTTTCTTTTTTTTTTTCTTTTCTTTT [GTGCAC_negctrl_site630],9.66 ± 0.16
8,ATAAAATGAAATATATGTACGCATCACTTGTTGAAC [XGTACX_site4530],11.4 ± 0.79
9,TCACATATGTTCCATTGTACTTGTAGTAATTTTTTC [XGTACX_site6473],11.1 ± 0.66
10,GTAATATGTATCCATACACACATACATTTTATTTGC [CACACA_site4640],10.3 ± 0.23
11,TGATCAATGGATTTAACACACAAAAAAAAAAAAAAA [CACACA_site3845],9.7 ± 0.28
12,TTTTGTTTTAAAAGTACACACTTTTAATTAGATTTC [CACACA_site4788],11.5 ± 1
13,AAAATACACAACATATATATATATATATATATATAT [XGTACX_negctrl_site21],9.86 ± 0.31
14,TTTTTTTTCTTCAAGCGTACTTATTTGTAGAAAAAA [XGTACX_site1728],11.2 ± 0.96
15,ATATGTGGAAATAGAGCACACATATATATAATATAT [CACACA_site8194],10.1 ± 0.13
16,TATGTATATATATAAAGTACGCAAATTTATAATAAG [XGTACX_site8744],11.5 ± 0.98
17,ATTTATTTTTTACATTGTACATATTTATTCCTTTTA [XGTACX_site8028],11.1 ± 0.51
18,TATAACATTTTTTTCAAAATAGCTTTAGAAATAAAG [CACACA_negctrl_site718],9.62 ± 0.028
19,TTATTTTCAAAATGTTGTACACACAAAAAAAAAAAA [XGTACX_site3151],11.4 ± 0.93
20,TTTTTTTTTTTTTTTGCATGCAGGTTTTTACCCCTT [TGCATGCA_site381],9.84 ± 0.51
21,TATATATATATATACACACACACATATATATATATA [CACACA_site774],10.3 ± 0.76

# — the supplement of paper PMC11417369
